Reference: the RNAGym collection of RNA variant scans (doi:10.7554/elife.90254)
Read counts are not given, so values of variants with three or more changes are uncertain.

B1: LINE1-mini (parent)
chain: GGCAGAGCUCAACACAGCGUGGCAAAGUGGCUGUGGCUAGACUGCC

Variants of: B1
Experiment: self-cleavage, relative activity (ratio to wild type); higher = more cleavage; in vitro, sequencing; the parent is a self-cleaving ribozyme

| Variant | self-cleavage |
| --- | --- |
| AGCAGAACUCAACACCGCGGGGCAAAGUGUCUGUGGCUAGACUGCC [G1A G7A A16C U20G G30U] | 0.26 |
| AGCAGAACUUAACACAGUGUGGCAAAGUGGCUGUGGCUACACUGCC [G1A G7A C10U C18U G40C] | 0.12 |
| AGCAGAACUCAACACAACGUGGCAAAGUGGCUGUGGCUAGACUGCC [G1A G7A G17A] | 0.23 |
| AGCAGAACUCAACACAGCCUGGCAAAGUGGCUGUCGCUAGCCAGCC [G1A G7A G19C G35C A41C U43A] | 0.12 |
| AGCAGAACUCAACACAGCGUAGCAAAGUGGCGGUGGCUAGACUGCC [G1A G7A G21A U32G] | 0.81 |
| AGCAGAACGCAACACAGCGCGGCUAAGUGGCUGUGGCUAGACUGCC [G1A G7A U9G U20C A24U] | 0.05 |
| AGCAGACCUCCACACAGCGUGGCAAAGUGGCUGUGGCUAGACUGCC [G1A G7C A11C] | 0.03 |
| AGCAGACCUCUACACAGCGUGGCAAAGUGGCUGUGGCUAGACUGCC [G1A G7C A11U] | 0.05 |
| AGCAGACCUCAACGAAGCGUGGCAAAGUGGCUGUGCCUAGACUGCC [G1A G7C A14G C15A G36C] | 0.39 |
| AGCAGACCUCAACACUGCGUGGCAAAGUGGCUUUGGCUAUACUGCC [G1A G7C A16U G33U G40U] | 0.07 |
| AGCAGACCUCAAGACAGCGUGGCAAAGUGGCUGUAGCUAGACUGCC [G1A G7C C13G G35A] | 0.16 |
| AGCAGACCUCAACAAAGCGUGGCAAAGUGGCUGUGGCUAGACUUCC [G1A G7C C15A G44U] | 0 |
| AGCAGACCUCAACACAGAGUAGCAAAGUGGCUGUGGCUAGACUGCC [G1A G7C C18A G21A] | 1.01 |
| AGCAGACCUCAACACAACGUGGCAAAGUGGCUUUGGCUAGACUGCC [G1A G7C G17A G33U] | 0.27 |
| AGCAGACCUCAACACAACGUGGCAAAGUGGCUGGGGCUAGACUGUC [G1A G7C G17A U34G C45U] | 0.07 |
| AGCAGACCUCAACACAGCCUGGCAAAUUGGCAGUGGCAAGACUGCC [G1A G7C G19C G27U U32A U38A] | 0.05 |
| AGCAGACCUCAACACAGCGUGGCAAAUUGGCUGUGGCUAGAUCGCC [G1A G7C G27U C42U U43C] | 0.55 |
| AGCAGACCUCAACACAGCGUGGCAAAGUGGCUGUGCCUAGACUGCC [G1A G7C G36C] | 0.13 |
| AGCAGAUCUCAACCCAGCGUGGCAAAGUGGCUGUGGCUAGACUGCC [G1A G7U A14C] | 0.11 |

| Variant | self-cleavage |
| --- | --- |
| AGCAGAUCUCAACACAGCGUGGCCAAGUGGCUGUGGCUAGGCUGCC [G1A G7U A24C A41G] | 0.24 |
| AGCAGAUCUCAACACAGCGUGGCCAAGUGUCUGUGGCUAGCCUGCC [G1A G7U A24C G30U A41C] | 0.06 |
| AGCAGAUCUCAACACACCGUGGGAAAGUGGCUGUUGCUAGCCUGCC [G1A G7U G17C C23G G35U A41C] | 0.09 |
| AGCAGAUCCCAACGCAGCGUGGCAAAGUGGCUGUGGCUAUACUGCC [G1A G7U U9C A14G G40U] | 0.13 |
| AGCAGAGCUCAACACAACGUGGCACAGUGGCUGUGGCUAGACUGCC [G1A G17A A25C] | 0.12 |
| AGCAGAGCUCAACACAACGUGGUAAAGUGGCUGCAACUAGACUAUC [G1A G17A C23U U34C G35A G36A G44A C45U] | 0.01 |
| AGCAGAGCUCAACACAACGUGGCAAAGUGGAUGUGGCUAGACUGCC [G1A G17A C31A] | 0.04 |
| AGCAGAGCUCAACACAACGUGGCAAAGUGGCUGUGGCUAUACUGCC [G1A G17A G40U] | 0.14 |
| AGCAGAGCUCAACACACCGUGGCAGAGUGGCUGUGGCUAGACUGCC [G1A G17C A25G] | 0.09 |
| AGCAGAGCUCAACACACCGUGGCAAAGUGGCUGUGGCUCGACUGCC [G1A G17C A39C] | 0.04 |
| AGCAGAGCUCAACACACCGUGGCAAAGUGGCUGUGGUUAGACUGCC [G1A G17C C37U] | 0.12 |
| AGCAGAGCUCAACACACCGUGGCAAAGUGGCUGUGGCUAGACUGCU [G1A G17C C46U] | 1.96 |
| AGCAGAGCUCAACACACCGAGGCAAAGUCGCGGUGGCUAUACUGCC [G1A G17C U20A G29C U32G G40U] | 0.01 |
| AGCAGAGCUCAACACACCGUGGCAAAGUGGCUGUGGCGAGACUGCC [G1A G17C U38G] | 0.04 |
| AGCAGAGCUCAACACAUCGUGGCAGAGUGGCUGUGGCUAGACUGCC [G1A G17U A25G] | 0.01 |
| AGCAGAGCUCAACACAUCCUGGCAAAGUGGCUGUGGCUAGACCGCC [G1A G17U G19C U43C] | 0.07 |
| AGCAGAGCUCAACACAUCGUGGCAAAGUGUCUGUGGCUAGACUGCG [G1A G17U G30U C46G] | 0.43 |
| AGCAGAGCUCAACACAUCGUGGCAAAGUGGCUGUGGCUAUACUGCC [G1A G17U G40U] | 0.03 |
| AGCAGAGCUCAACACAUCGUGGCAAAGACGCUGUGGCUAGACUGCC [G1A G17U U28A G29C] | 2.59 |

| Variant | self-cleavage |
| --- | --- |
| AGCAGAGCUCAACACAGCAUGGUAAAGUGGCUGUGGCUAGACUGCC [G1A G19A C23U] | 0.1 |
| AGCAGAGCUCAACACAGCAUGGUAGAGUGGCUGUGGCUCGACUGCC [G1A G19A C23U A25G A39C] | 0.07 |
| AGCAGAGCUCAACACAGCAGGGCAUAGUGGCUGUGGCUAGACUGCC [G1A G19A U20G A25U] | 0.16 |
| AGCAGAGCUCAACACAGCCUGCCAAAGUGGCUGUGGCUGGACUGCC [G1A G19C G22C A39G] | 0.04 |
| AGCAGAGCUCAACACAGCCUGGCAAAGUGAUUGUGGCUCGACUGCC [G1A G19C G30A C31U A39C] | 0.04 |
| AGCAGAGCUCAACACAGCCUGGCAAAGUGGCUGUUGCUAGACUGCC [G1A G19C G35U] | 0.09 |
| AGCAGAGCUCAACACAGCCUGGCAAAGUGGCUGUGGCUAUACUGCC [G1A G19C G40U] | 0.03 |
| AGCAGAGCUCAACACAGCCAGGCAAAGUGGCUGUGGCUAGACUGCC [G1A G19C U20A] | 0.15 |
| AGCAGAGCUCAACACAGCUUGGCAAAGUGGCUGUGGAUCGACUGCC [G1A G19U C37A A39C] | 0.03 |
| AGCAGAGCUCAACACAGCUUCGCAAAGUGGCUCUGGCUAGACUGCC [G1A G19U G21C G33C] | 0.13 |
| AGCAGAGCUCAACACAGCGUCGCAAAGUGGAUGUGGCUAGACUGCC [G1A G21C C31A] | 0.09 |
| AGCAGAGCUCAACACAGCGUUGCAAAGUGGAUGUGGUGAGACUGCC [G1A G21U C31A C37U U38G] | 0.05 |
| AGCAGAGCUCAACACAGCGUUGCAAAGUGGCUGUGGCUAGAAUGCC [G1A G21U C42A] | 0.24 |
| AGCAGAGCUCAACACAGCGUUGCAAAGUGGCUGUGGCUAGACUGAC [G1A G21U C45A] | 0.6 |
| AGCAGAGCUCAACACAGCGUUGCAAAGUCGCUGUGGCUAGACUGCC [G1A G21U G29C] | 0.07 |
| AGCAGAGCUCAACACAGCGUUGCAAAGUGGCUGUGUCUAGACUGCC [G1A G21U G36U] | 0.02 |
| AGCAGAGCUCAACACAGCGUUGCAAAGUGGCUGUGGCUACACUGCC [G1A G21U G40C] | 0.07 |
| AGCAGAGCUCAACACAGCGUGACAAAGUGGAUGUGGCUAGACUGCC [G1A G22A C31A] | 1.04 |
